Some of the results follow. Single values are uncertain, as repeats are few or missing.
Test system: UACC257
Test: cell count relative to DMSO control; melanoma cells; higher = more viable cells
Conditions: library dose: low library concentration; 72 h
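Further: cell number obtained by counting DAPI-stained nuclei in high-throughput microscope images with image analysis software, screen run in 1,536-well plates.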

Row | SMILES | cell count
1 | C[As](C)SC[C@H](NC(=O)CC[C@H](N)C(=O)O)C(=O)NCC(=O)O [Darinaparsin] + O=C(Nc1ccccc1)c1cc([N+](=O)[O-])ccc1Cl [GW9662] (first compound 0.4 µM, partner dose 2 µM) | 91.2%
2 | C[As](C)SC[C@H](NC(=O)CC[C@H](N)C(=O)O)C(=O)NCC(=O)O [Darinaparsin] + Cc1cc(SCc2sc(-c3ccc(C(F)(F)F)c(F)c3)nc2C)ccc1OCC(=O)O [GW0742] (first compound 0.4 µM, partner dose 2 µM) | 117%
3 | C[As](C)SC[C@H](NC(=O)CC[C@H](N)C(=O)O)C(=O)NCC(=O)O [Darinaparsin] + O=C1NC(=O)/C(=C/c2ccc(-c3ccc(F)cc3O)o2)S1 [AS252424] (first compound 0.4 µM, partner dose 1 µM) | 98.4%
4 | C[As](C)SC[C@H](NC(=O)CC[C@H](N)C(=O)O)C(=O)NCC(=O)O [Darinaparsin] + Cn1cc(/C=C2\C(=O)Nc3cccnc32)c2ccccc21 [GW441756] (first compound 0.4 µM, partner dose 0.4 µM) | 74%
5 | C[As](C)SC[C@H](NC(=O)CC[C@H](N)C(=O)O)C(=O)NCC(=O)O [Darinaparsin] + COC(=O)c1sccc1S(=O)(=O)Nc1ccc(Nc2ccccc2)cc1OC [GSK0660] (first compound 0.4 µM, partner dose 1 µM) | 64.2%
6 | C[As](C)SC[C@H](NC(=O)CC[C@H](N)C(=O)O)C(=O)NCC(=O)O [Darinaparsin] + O=C(Oc1ccc([N+](=O)[O-])cc1)N1CCC(C(O)(c2ccc3c(c2)OCO3)c2ccc3c(c2)OCO3)CC1 [JZL184] (first compound 0.4 µM, partner dose 1 µM) | 69.6%

Test system: UACC62
Test: as above
Conditions: library dose: low library concentration; 72 h

Row | SMILES | cell count
7 | C[C@]12O[C@H](C[C@]1(O)CO)n1c3ccccc3c3c4c(c5c6ccccc6n2c5c31)CNC4=O [Lestaurtinib] + OCc1c[nH]c2ccccc12 [Indole-3-carbinol] (first compound 0.004 µM, partner dose 0.8 µM) | 97.1%
8 | C[C@]12O[C@H](C[C@]1(O)CO)n1c3ccccc3c3c4c(c5c6ccccc6n2c5c31)CNC4=O [Lestaurtinib] + CO[C@H]1C[C@@H]2CC[C@@H](C)[C@@](O)(O2)C(=O)C(=O)N2CCCC[C@H]2C(=O)O[C@H]([C@H](C)C[C@@H]2CC[C@@H](OCCO)[C@H](OC)C2)CC(=O)[C@H](C)/C=C(\C)[C@@H](O)[C@@H](OC)C(=O)[C@H](C)C[C@H](C)/C=C/C=C/C=C/1C [everolimus] (first compound 0.004 µM, partner dose 0.02 µM) | 77.9%
9 | C[C@]12O[C@H](C[C@]1(O)CO)n1c3ccccc3c3c4c(c5c6ccccc6n2c5c31)CNC4=O [Lestaurtinib] + Cn1c(=O)n(-c2ccc(C(C)(C)C#N)cc2)c2c3cc(-c4cnc5ccccc5c4)ccc3ncc21 [NVP-BEZ235] (first compound 0.004 µM, partner dose 0.004 µM) | 77.7%
10 | C[C@]12O[C@H](C[C@]1(O)CO)n1c3ccccc3c3c4c(c5c6ccccc6n2c5c31)CNC4=O [Lestaurtinib] + Nc1ccn([C@@H]2O[C@H](CO)[C@@H](O)C2(F)F)c(=O)n1 [gemcitabine] (first compound 0.004 µM, partner dose 0.0004 µM) | 102%
11 | Cn1cc(C2=C(c3cn(C4CCN(Cc5ccccn5)CC4)c4ccccc34)C(=O)NC2=O)c2ccccc21 [Enzastaurin] + CO[C@H]1C[C@@H]2CC[C@@H](C)[C@@](O)(O2)C(=O)C(=O)N2CCCC[C@H]2C(=O)O[C@H]([C@H](C)C[C@@H]2CC[C@@H](OCCO)[C@H](OC)C2)CC(=O)[C@H](C)/C=C(\C)[C@@H](O)[C@@H](OC)C(=O)[C@H](C)C[C@H](C)/C=C/C=C/C=C/1C [everolimus] (first compound 0.8 µM, partner dose 0.02 µM) | 91.3%
12 | C[C@]12O[C@H](C[C@]1(O)CO)n1c3ccccc3c3c4c(c5c6ccccc6n2c5c31)CNC4=O [Lestaurtinib] + Nc1cccc2c1CN(C1CCC(=O)NC1=O)C2=O [lenalidomide] (first compound 0.004 µM, partner dose 1 µM) | 100%
13 | C[C@]12O[C@H](C[C@]1(O)CO)n1c3ccccc3c3c4c(c5c6ccccc6n2c5c31)CNC4=O [Lestaurtinib] + CN(c1ncccc1CNc1nc(Nc2ccc3c(c2)CC(=O)N3)ncc1C(F)(F)F)S(C)(=O)=O [PF562271] (first compound 0.004 µM, partner dose 0.08 µM) | 88.8%
14 | C[C@]12O[C@H](C[C@]1(O)CO)n1c3ccccc3c3c4c(c5c6ccccc6n2c5c31)CNC4=O [Lestaurtinib] + CC(=O)O[C@@]12CO[C@@H]1C[C@H](O)[C@@]1(C)C(=O)[C@H](O)C3=C(C)[C@@H](OC(=O)[C@H](O)[C@@H](NC(=O)OC(C)(C)C)c4ccccc4)C[C@@](O)([C@@H](OC(=O)c4ccccc4)[C@H]21)C3(C)C [Docetaxel] (first compound 0.004 µM, partner dose 0.0001 µM) | 41.3%
15 | C[As](C)SC[C@H](NC(=O)CC[C@H](N)C(=O)O)C(=O)NCC(=O)O [Darinaparsin] + O=C(Nc1ccccc1)c1cc([N+](=O)[O-])ccc1Cl [GW9662] (first compound 0.4 µM, partner dose 2 µM) | 103%
16 | C[As](C)SC[C@H](NC(=O)CC[C@H](N)C(=O)O)C(=O)NCC(=O)O [Darinaparsin] + Cc1cc(SCc2sc(-c3ccc(C(F)(F)F)c(F)c3)nc2C)ccc1OCC(=O)O [GW0742] (first compound 0.4 µM, partner dose 2 µM) | 104%
17 | C[C@]12O[C@H](C[C@]1(O)CO)n1c3ccccc3c3c4c(c5c6ccccc6n2c5c31)CNC4=O [Lestaurtinib] + CCCS(=O)(=O)Nc1ccc(F)c(C(=O)c2c[nH]c3ncc(Cl)cc23)c1F [PLX4720] (first compound 0.004 µM, partner dose 0.08 µM) | 94.7%
18 | C[C@]12O[C@H](C[C@]1(O)CO)n1c3ccccc3c3c4c(c5c6ccccc6n2c5c31)CNC4=O [Lestaurtinib] + O=C(O)[C@@H]1[O][Sb](=[O])([O][Sb]2(=[O])[O][C@H]([C@H](O)CO)[C@H](O)[C@H](C(=O)O)[O]2)[O][C@H]([C@H](O)CO)[C@@H]1O [stibogluconate] (first compound 0.004 µM, partner dose 2 µM) | 107%
19 | C[C@]12O[C@H](C[C@]1(O)CO)n1c3ccccc3c3c4c(c5c6ccccc6n2c5c31)CNC4=O [Lestaurtinib] + O=C(O)c1ccc2c(c1)nc(Nc1cccc(Cl)c1)c1ccncc12 [CX4945] (first compound 0.004 µM, partner dose 0.4 µM) | 111%
20 | C[As](C)SC[C@H](NC(=O)CC[C@H](N)C(=O)O)C(=O)NCC(=O)O [Darinaparsin] + O=C1NC(=O)/C(=C/c2ccc(-c3ccc(F)cc3O)o2)S1 [AS252424] (first compound 0.4 µM, partner dose 1 µM) | 84.1%
21 | C[C@]12O[C@H](C[C@]1(O)CO)n1c3ccccc3c3c4c(c5c6ccccc6n2c5c31)CNC4=O [Lestaurtinib] + CC(C)C[C@H](NC(=O)[C@H](Cc1ccccc1)NC(=O)c1cnccn1)B(O)O [Bortezomib] (first compound 0.004 µM, partner dose 0.001 µM) | 95.3%
22 | C[C@]12O[C@H](C[C@]1(O)CO)n1c3ccccc3c3c4c(c5c6ccccc6n2c5c31)CNC4=O [Lestaurtinib] + N.N.[Cl][Pt][Cl] [cisplatin] (first compound 0.004 µM, partner dose 1.6 µM) | 116%
23 | C[C@]12O[C@H](C[C@]1(O)CO)n1c3ccccc3c3c4c(c5c6ccccc6n2c5c31)CNC4=O [Lestaurtinib] + NC1(c2ccc(-c3nc4ccn5c(=O)[nH]nc5c4cc3-c3ccccc3)cc2)CCC1 [MK2206] (first compound 0.004 µM, partner dose 0.4 µM) | 66.5%
24 | C[C@]12O[C@H](C[C@]1(O)CO)n1c3ccccc3c3c4c(c5c6ccccc6n2c5c31)CNC4=O [Lestaurtinib] + C[C@]1(O)C[C@@H](c2nc(-c3ccc4ccc(-c5ccccc5)nc4c3)c3c(N)nccn32)C1 [OSI906] (first compound 0.004 µM, partner dose 0.4 µM) | 82.9%
25 | C[C@]12O[C@H](C[C@]1(O)CO)n1c3ccccc3c3c4c(c5c6ccccc6n2c5c31)CNC4=O [Lestaurtinib] + C=C(c1ccc(C(=O)O)cc1)c1cc2c(cc1C)C(C)(C)CCC2(C)C [Bexarotene] (first compound 0.004 µM, partner dose 2 µM) | 95.9%
26 | C[C@]12O[C@H](C[C@]1(O)CO)n1c3ccccc3c3c4c(c5c6ccccc6n2c5c31)CNC4=O [Lestaurtinib] + CN1CCN(c2ccc3nc(-c4c(N)c5c(F)cccc5[nH]c4=O)[nH]c3c2)CC1 [Dovitinib] (first compound 0.004 µM, partner dose 0.1 µM) | 68.3%
27 | C[C@]12O[C@H](C[C@]1(O)CO)n1c3ccccc3c3c4c(c5c6ccccc6n2c5c31)CNC4=O [Lestaurtinib] + CCCCCCCCc1ccc(CCC(N)(CO)CO)cc1 [fingolimod] (first compound 0.004 µM, partner dose 2 µM) | 92.8%
